In PubChem BioAssay AID485344 (National Center for Advancing Translational Sciences (NCATS), 2010):
About 6,900 (2%) of roughly 340,000 compounds were called active. No stated cut-off is given here; in the data, active means inhibition above about 30%; inactive means below that, where a call was filed. This is a selection; strong and weak results do not stand in their true shares. Entries without a call were filed so in the source.

The molecules below were run against D(2) dopamine receptor (Homo sapiens) (UniProt P14416) (assay: HTS Assay for Allosteric Antagonists of the Human D2 Dopamine Receptor: Primary Screen for Antagonists). Details: HEK293 TREx D2 cells, calcium flux, dopamine EC80; at 10 µM; stronger effect = higher value.
UniProt P14416, sequence (P14416 whole entry, looked up): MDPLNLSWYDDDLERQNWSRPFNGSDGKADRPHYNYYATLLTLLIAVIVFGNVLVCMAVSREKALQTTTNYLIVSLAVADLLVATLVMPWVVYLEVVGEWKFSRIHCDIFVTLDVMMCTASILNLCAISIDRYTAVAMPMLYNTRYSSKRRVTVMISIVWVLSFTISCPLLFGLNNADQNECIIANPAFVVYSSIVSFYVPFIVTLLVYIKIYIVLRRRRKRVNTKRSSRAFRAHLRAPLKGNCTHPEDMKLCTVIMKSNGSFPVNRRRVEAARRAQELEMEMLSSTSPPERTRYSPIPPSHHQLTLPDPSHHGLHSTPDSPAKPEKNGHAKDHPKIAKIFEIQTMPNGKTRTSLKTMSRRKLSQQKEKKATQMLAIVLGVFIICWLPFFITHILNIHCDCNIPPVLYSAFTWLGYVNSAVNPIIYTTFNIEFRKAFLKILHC
Method in brief: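 Cells plated overnight at 30 C with tetracycline; no-wash calcium dye, 30–90 min RT; 10 s baseline; compound pinned; 180 s read; EC80 dopamine added; another 180 s read.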
Further: 0% is about no effect.

| SMILES | inhibition |
| --- | --- |
| COc1cccc(NC(=O)c2c(C)oc3nc(C)nc(N4CCCC4)c23)c1 | 6.69% |
| CCN1CCN(Cc2c(O)ccc3oc(C)c(C(=O)Nc4cccc(C(F)(F)F)c4)c23)CC1 | -12.1% |
| Cc1ccc2c(c1)N(C(=O)CCC(=O)NCc1cccc(F)c1)CC(C)O2 (stereo not given) | -18.9% |
| COc1ccc(CC(=O)Nc2nc3c(s2)CCCC3)cc1 | -7.21% |
| CCC(=O)N1CCc2cc(S(=O)(=O)CCC(=O)N3CCN(c4cccc(C)c4C)CC3)ccc21 | 0.391% |
| Cc1cccc(C)c1NC(=O)c1cc(S(=O)(=O)N2CCc3ccccc3C2)ccc1F | -28.2% |
| CCCN1Cc2cccc(C(=O)Nc3cc(Cl)ccc3C)c2C1=O | 3.76% |
| O=C(CSc1nccn1Cc1ccc(F)cc1)NCc1ccco1 | -11.3% |
| Cc1cc(C)c2c(c1)c(C)cc1nnc(SCC(=O)c3ccccc3)n12 | 8.6% |
| Cc1ccc(C)c(NC(=O)C(CC(C)C)N2Cc3ccccc3C2=O)c1 (stereo not given) | 0.546% |
| O=C(CN1C(=O)c2ccccc2Sc2ccc(C(=O)N3CCOCC3)cc21)Nc1ccc(Cl)cc1F | 9.41% |
| CC(C)(C)c1ccc(C(=O)Nc2ccc(-c3nc4ccccc4o3)c(O)c2)cc1 | 4.91% |
| Cc1cccc(NC(=O)c2sc3ncnc(N(C)C4CCCCC4)c3c2C)c1C | 11.9% |
| CCOc1ccc(-c2nnc(SCC(=O)Nc3cccc(C#N)c3)o2)cc1 | 8.05% |
| COc1cccc(NC(=O)Nc2ccc3c(c2)N(C)C(=O)c2ccccc2S3)c1 | -2.56% |
| CC1CCN(C(=O)Cn2c(-c3cccs3)cc3cc(Cl)ccc32)CC1 | -1.79% |
| Cc1ccc(NC(=O)COc2ccc(-n3cnnn3)cc2)cc1C | active: 41.5% |
| COc1ccc(OCCn2c(NC(=O)c3ccc(OC)cc3)nc3ccccc32)cc1 | 0.681% |
| CNC(=O)C1CCC(Cn2c(=O)c3sccc3n(CC(=O)N3CCCC(C)C3)c2=O)CC1 (stereo not given) | -0.966% |
| COCCCNC(=O)C1CCN(Cc2cc3ccccc3n2Cc2cccc(C)c2)CC1 | 10.1% |

| SMILES | inhibition |
| --- | --- |
| COc1ccc(-c2nnc(SCC(=O)N3CCC(C)CC3)o2)cc1 | 6.94% |
| COc1ccccc1CNC(=O)CSc1ncc(S(=O)(=O)c2ccc(C)c(Cl)c2)c(=O)[nH]1 | 19.6% |
| CCN(CC)S(=O)(=O)c1ccc(NC(=O)Cn2c(=O)sc3ccccc32)cc1 | active: 43% |
| Cc1cccc(CCNC(=O)c2cc(S(=O)(=O)N3CCCCC3)c[nH]2)c1 | -12.4% |
| Cc1cccc(N2CCN(C(=O)c3ccc4c(c3)N(Cc3ccccc3)C(=O)c3ccccc3S4(=O)=O)CC2C)c1 (stereo not given) | 24.8% |
| Cc1c2cnn(-c3ccccc3)c(=O)c2c(C)n1C(C)C(=O)Nc1ccccc1C(F)(F)F (stereo not given) | -2.15% |
| Cc1ccc(C)c(NC(c2ccccc2)c2nnc(-c3ccccc3F)o2)c1 (stereo not given) | -25.3% |
| CCOC(=O)CC(NC(=O)Cn1nnc(-c2ccccc2Cl)n1)c1ccc(OC)cc1 (stereo not given) | -28.1% |
| CCOC(=O)c1[nH]c(=O)[nH]c1CSc1nc(C)cc(C)n1 | active: 31.9% |
| COc1ccc(CCN2C(=O)N(c3cccc(C)c3)C(=O)C2CC(=O)Nc2ccccc2)cc1OC (stereo not given) | -17.9% |
| Clc1ccc(CCNc2nc3cc(Cl)c(Cl)cc3n3cnnc23)cc1 | 1.35% |
| O=S(=O)(c1ccc(F)cc1)N1CCC(Oc2cccc(C(F)(F)F)c2)CC1 | 2.6% |
| COc1c(Cl)cc(Cl)cc1C(=O)Nc1cccc(-c2nc3ccccc3o2)c1C | 2.84% |
| CCn1c(COc2ccc(Cl)cc2Cl)nc2ccccc21 | 0.948% |
| COc1ccc(S(=O)(=O)N2Cc3ccccc3CC2C(=O)Nc2ccc(C)cc2)cc1OC (stereo not given) | 13% |
| COc1ccc(CCNC(=O)CCCn2c(=O)c3ccccc3n(Cc3ccccc3)c2=O)cc1OC | 20.4% |
| COc1cccc(CNC(=O)C(=O)NCC(c2cccs2)S(=O)(=O)c2ccccc2)c1 (stereo not given) | -23.8% |
| Cc1c(C(=O)OC2CCCCC2)[nH]c2c1C(=O)CC(c1ccc(F)cc1)C2 (stereo not given) | -10.6% |
| COc1ccc(-c2[nH]nc3nc(-c4cc(Br)ccc4OC)cc(C(=O)O)c23)cc1 | 18% |
| O=C(CN1CCCN(Cc2cccc(Cl)c2)S1(=O)=O)Nc1ccc2c(c1)OCCO2 | 9.26% |

| SMILES | inhibition |
| --- | --- |
| CC(C)CC(=O)NCC(c1ccc2c(c1)OCO2)N1CCN(c2ccccc2)CC1 (stereo not given) | -11.8% |
| Cc1ccc(NC(=O)C2CCN(S(=O)(=O)c3ccc4c(c3)NC(=O)C(C)S4)CC2)cc1C (stereo not given) | active: 57.7% |
| COc1ccccc1CN1CCC(CNC(=O)c2cnn(-c3ccccc3Cl)c2C2CCN(C(=O)OC(C)(C)C)CC2)CC1 | -8.14% |
| CCC(=O)Nc1ccc(Cl)c(-c2nc3ccccc3[nH]2)c1 | 14.8% |
| Cc1ccc(-n2ncc3c(N4CCCCCC4)ncnc32)cc1Cl | 11.8% |
| Cc1cccc(NC(=O)c2ccc(-n3c(C)nnc3C)cc2)c1 | 1.92% |
| O=S1(=O)c2ccccc2N(Cc2cccc(F)c2)c2ccccc21 | 9.9% |
| COc1ccc(NC(=O)c2ccco2)cc1NC(=O)c1cc(Cl)ccc1OC | 19% |
| CCCN(CCC)C(=O)Cn1c(=O)n(-c2cccc(C)c2)c(=O)c2c1c1cc(OC)ccc1n2C | -5.47% |
| CSc1ccc(-c2nnn(CC(=O)Nc3sc4c(c3C#N)CCC(C(C)(C)C)C4)n2)cc1 (stereo not given) | -9.16% |
| COc1cccc(-c2cc(C(F)(F)F)nc(NCCc3ccc(OC)c(OC)c3)n2)c1 | -13.4% |
| Cc1cccc(CN2CCC(CNC(=O)Cn3ncc4c([nH]c5ccc(C)cc54)c3=O)CC2)c1 | -5.77% |
| CCOC(=O)c1cc(S(=O)(=O)NCc2ccc(Cl)cc2)[nH]n1 | -3.43% |
| O=C(CCN1CCN(c2ccccc2)CC1)NNC(=O)Cc1c(F)cccc1Cl | active: 60.2% |
| COc1ccccc1C(=O)Nc1nc2n(n1)C(c1ccc(F)cc1)C=C(c1ccc(Cl)cc1)N2 (stereo not given) | -5.82% |
| Cc1ccccc1CSc1ncc(Cl)c(C(=O)Nc2nc3ccc(F)cc3s2)n1 | 10% |
| COc1ccccc1C(=O)N/C(=C\c1cn(S(=O)(=O)N(C)C)c2ccccc12)C(=O)NCCCn1ccnc1 | 4.97% |
| CCc1ccc(CNC(=O)C2CCCN(c3nnc(C)c4c(C)n(-c5ccccc5)nc34)C2)cc1 (stereo not given) | -9.02% |
| Cc1cc2n(n1)CCC(=O)N2Cc1ccc(C(=O)Nc2cc(Cl)ccc2C)cc1 | -11.5% |
| COc1ccc(OC)c(NC(=O)C2CCCN(S(=O)(=O)c3ccc4c(c3)CCCC(=O)N4)C2)c1 (stereo not given) | 5.99% |
